{"source": "the supplement of paper PMC10037445", "key": {"[1]": {"tested_on": "RAW-Dual", "experiment": "IRF Lucia reporter activity, fold change vs agonist alone; cytotoxicity flag (confluency mask): not cytotoxic; higher = enhanced IRF activity", "in_short": "(§1)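 Cytotoxic wells were those whose IncuCyte confluency was below 70% of agonist controls in both mask sets. The cells were RAW-Dual macrophages at 50,000 cells/well in DMEM on 384-well plates, dosed with 50 nL of library stock by pin tool, stimulated with a PRR agonist 1 h later, and kept at 37 °C, 5% CO2 for 20 hours. IRF and NF-κB reporter activity, as fold change over agonist-alone wells, came from supernatant read by QuantiLuc luminescence and QuantiBlue absorbance, respectively.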"}, "[2]": {"tested_on": "RAW-Dual", "experiment": "IRF Lucia reporter activity, fold change vs agonist alone; higher = enhanced IRF activity", "details": "agonist: MPLA (TLR4) […]", "in_short": "as §1"}, "[3]": {"tested_on": "RAW-Dual", "experiment": "IRF Lucia reporter activity, fold change vs agonist alone; cytotoxicity flag (confluency mask): cytotoxic (confluency <70% of control); higher = enhanced IRF activity", "in_short": "as §1"}, "[4]": {"details": "agonist: 3'3'-cGAMP (STING) 10 ug/mL"}, "[5]": {"details": "library stock concentration (final ~1000-fold dilution): 10 mM, cytotoxicity flag (confluency mask): not cytotoxic"}}, "note": "The full ranking holds about 2,900 compounds; the median of “IRF Lucia reporter activity, fold change vs agonist alone” is about 0.9, and the highest 2% start at about 2.8. The list shows a part of the results.", "data": [{"smiles": "Cn1cc(-c2ccc3nnc(Sc4ccc5ncccc5c4)n3n2)cn1", "note": "(library stock concentration (final ~1000-fold dilution): 2 mM)", "values": [{"measurement": "IRF Lucia reporter activity", "setting": "[1]; [4]", "result": 0.896}, {"measurement": "IRF Lucia reporter activity", "setting": "[1]; agonist: LPS (TLR4) 0.1 ug/mL", "result": 0.852}]}, {"smiles": "Cn1cc(-c2ccc3nnc(Sc4ccc5ncccc5c4)n3n2)cn1", "values": [{"measurement": "IRF Lucia reporter activity", "setting": "[2]; library stock concentration (final ~1000-fold dilution): 2 mM, cytotoxicity flag (confluency mask): not cytotoxic", "result": 1.13}]}, {"smiles": "CC#Cc1cncc(-c2ccc3c(c2)C2(N=C(C)C(N)=N2)C2(CCC(OC)CC2)C3)c1", "note": "(centres undefined) (library stock concentration (final ~1000-fold dilution): 10 mM)", "values": [{"measurement": "IRF Lucia reporter activity", "setting": "[1]; [4]", "result": 0.383}, {"measurement": "IRF Lucia reporter activity", "setting": "[1]; agonist: LPS (TLR4) 0.1 ug/mL", "result": 1.1}]}, {"smiles": "O=C1NC(=O)/C(=C/c2cccc(C(F)(F)F)c2)S1", "note": "(library stock concentration (final ~1000-fold dilution): 10 mM)", "values": [{"measurement": "IRF Lucia reporter activity", "setting": "[1]; [4]", "result": 0.789}, {"measurement": "IRF Lucia reporter activity", "setting": "[1]; agonist: LPS (TLR4) 0.1 ug/mL", "result": 0.966}]}, {"smiles": "CC1(C)CCC2(C(=O)O)CCC3(CO)C(=CCC4C5(C)CC(O)C(OC6OC(CO)C(O)C(O)C6O)C(C)(C(=O)O)C5CCC43C)C2C1", "note": "(centres undefined) (library stock concentration (final ~1000-fold dilution): 10 mM)", "values": [{"measurement": "IRF Lucia reporter activity", "setting": "[1]; [4]", "result": 0.854}, {"measurement": "IRF Lucia reporter activity", "setting": "[1]; agonist: LPS (TLR4) 0.1 ug/mL", "result": 1.11}]}, {"smiles": "CN1CCN(C2CCN(C(=O)Nc3cc(Oc4ccc(NC(=O)C5(C(=O)Nc6ccc(F)cc6)CC5)c(F)c4)ccn3)CC2)CC1", "values": [{"measurement": "IRF Lucia reporter activity", "setting": "[2]; library stock concentration (final ~1000-fold dilution): 10 mM, cytotoxicity flag (confluency mask): cytotoxic (confluency <70% of control)", "result": 1.91}]}, {"smiles": "CN1CCN(C2CCN(C(=O)Nc3cc(Oc4ccc(NC(=O)C5(C(=O)Nc6ccc(F)cc6)CC5)c(F)c4)ccn3)CC2)CC1", "note": "(library stock concentration (final ~1000-fold dilution): 10 mM)", "values": [{"measurement": "IRF Lucia reporter activity", "setting": "[3]; [4]", "result": 0.781}, {"measurement": "IRF Lucia reporter activity", "setting": "[3]; agonist: LPS (TLR4) 0.1 ug/mL", "result": 0.874}]}, {"smiles": "CC(C)=CCC[C@](C)(O[C@@H]1O[C@H](CO[C@@H]2O[C@H](CO)[C@@H](O)[C@H](O)[C@H]2O)[C@@H](O)[C@H](O)[C@H]1O)[C@H]1CC[C@]2(C)[C@@H]1[C@H](O)C[C@@H]1[C@@]3(C)CC[C@H](O[C@@H]4O[C@H](CO)[C@@H](O)[C@H](O)[C@H]4O[C@@H]4O[C@H](CO)[C@@H](O)[C@H](O)[C@H]4O)C(C)(C)[C@@H]3CC[C@]12C", "note": "(library stock concentration (final ~1000-fold dilution): 10 mM)", "values": [{"measurement": "IRF Lucia reporter activity", "setting": "[1]; [4]", "result": 0.142}, {"measurement": "IRF Lucia reporter activity", "setting": "[1]; agonist: LPS (TLR4) 0.1 ug/mL", "result": 0.445}]}, {"smiles": "CCCC(=O)OCOC(=O)C1=C(C)NC(C)=C(C(=O)OC)C1c1cccc(Cl)c1Cl", "note": "(centres undefined) (library stock concentration (final ~1000-fold dilution): 10 mM)", "values": [{"measurement": "IRF Lucia reporter activity", "setting": "[1]; [4]", "result": 1.02}, {"measurement": "IRF Lucia reporter activity", "setting": "[1]; agonist: LPS (TLR4) 0.1 ug/mL", "result": 0.873}]}, {"smiles": "CCCC(=O)OCOC(=O)C1=C(C)NC(C)=C(C(=O)OC)C1c1cccc(Cl)c1Cl", "note": "(centres undefined)", "values": [{"measurement": "IRF Lucia reporter activity", "setting": "[2]; [5]", "result": 0.992}]}, {"smiles": "CN(C/C=C/C#CC(C)(C)C)Cc1cccc2ccccc12", "note": "(library stock concentration (final ~1000-fold dilution): 10 mM)", "values": [{"measurement": "IRF Lucia reporter activity", "setting": "[1]; [4]", "result": 1.26}, {"measurement": "IRF Lucia reporter activity", "setting": "[1]; agonist: LPS (TLR4) 0.1 ug/mL", "result": 1.26}]}, {"smiles": "CN(C/C=C/C#CC(C)(C)C)Cc1cccc2ccccc12", "values": [{"measurement": "IRF Lucia reporter activity", "setting": "[2]; [5]", "result": 0.91}]}, {"smiles": "CN1CCN(c2ccc(OC(F)(F)F)c(Nc3ncc4c(n3)-c3c(c(C(N)=O)nn3CCO)CC4)c2)CC1", "note": "(library stock concentration (final ~1000-fold dilution): 10 mM)", "values": [{"measurement": "IRF Lucia reporter activity", "setting": "[1]; [4]", "result": 0.405}, {"measurement": "IRF Lucia reporter activity", "setting": "[1]; agonist: LPS (TLR4) 0.1 ug/mL", "result": 0.364}]}, {"smiles": "CN1CCN(c2ccc(OC(F)(F)F)c(Nc3ncc4c(n3)-c3c(c(C(N)=O)nn3CCO)CC4)c2)CC1", "values": [{"measurement": "IRF Lucia reporter activity", "setting": "[2]; [5]", "result": 0.656}]}, {"smiles": "Cc1cc(C)c(CNC(=O)c2cc(-c3ccc(N4CCN(C)CC4)nc3)cc3c2c(C)cn3C(C)C)c(=O)[nH]1", "note": "(library stock concentration (final ~1000-fold dilution): 10 mM)", "values": [{"measurement": "IRF Lucia reporter activity", "setting": "[1]; [4]", "result": 0.211}, {"measurement": "IRF Lucia reporter activity", "setting": "[1]; agonist: LPS (TLR4) 0.1 ug/mL", "result": 0.68}]}, {"smiles": "O=C(CNc1ccc2ccccc2c1)N/N=C/c1cc(Br)c(O)c(Br)c1O", "note": "(library stock concentration (final ~1000-fold dilution): 10 mM)", "values": [{"measurement": "IRF Lucia reporter activity", "setting": "[1]; [4]", "result": 0.323}, {"measurement": "IRF Lucia reporter activity", "setting": "[1]; agonist: LPS (TLR4) 0.1 ug/mL", "result": 1.28}]}, {"smiles": "CC(C)=CCCC(C)(OC1OC(CO)C(O)C(O)C1O)C1CCC2(C)C1C(O)CC1C3(C)CCC(O)C(C)(C)C3C(OC3OC(CO)C(O)C(O)C3OC3OCC(O)C(O)C3O)CC12C", "note": "(centres undefined)", "values": [{"measurement": "IRF Lucia reporter activity", "setting": "[2]; [5]", "result": 1.01}]}, {"smiles": "CC(C)=CCCC(C)(OC1OC(CO)C(O)C(O)C1O)C1CCC2(C)C1C(O)CC1C3(C)CCC(O)C(C)(C)C3C(OC3OC(CO)C(O)C(O)C3OC3OCC(O)C(O)C3O)CC12C", "note": "(centres undefined) (library stock concentration (final ~1000-fold dilution): 10 mM)", "values": [{"measurement": "IRF Lucia reporter activity", "setting": "[1]; [4]", "result": 0.924}, {"measurement": "IRF Lucia reporter activity", "setting": "[1]; agonist: LPS (TLR4) 0.1 ug/mL", "result": 1.2}]}, {"smiles": "CCN(CC)Cc1ccc2cc(COC(=O)Nc3ccc(C(=O)NO)cc3)ccc2c1.Cl.O", "note": "(library stock concentration (final ~1000-fold dilution): 10 mM)", "values": [{"measurement": "IRF Lucia reporter activity", "setting": "[1]; [4]", "result": 1.03}, {"measurement": "IRF Lucia reporter activity", "setting": "[1]; agonist: LPS (TLR4) 0.1 ug/mL", "result": 0.611}]}, {"smiles": "CCN(CC)Cc1ccc2cc(COC(=O)Nc3ccc(C(=O)NO)cc3)ccc2c1.Cl.O", "values": [{"measurement": "IRF Lucia reporter activity", "setting": "[2]; [5]", "result": 1.07}]}, {"smiles": "O=C(C(Cc1cccc(C(F)(F)F)c1)NS(=O)(=O)c1cc(F)c2c(c1)CCNC2)N1CCCC1", "note": "(centres undefined)", "values": [{"measurement": "IRF Lucia reporter activity", "setting": "[2]; [5]", "result": 1.12}]}, {"smiles": "O=C(C(Cc1cccc(C(F)(F)F)c1)NS(=O)(=O)c1cc(F)c2c(c1)CCNC2)N1CCCC1", "note": "(centres undefined) (library stock concentration (final ~1000-fold dilution): 10 mM)", "values": [{"measurement": "IRF Lucia reporter activity", "setting": "[1]; [4]", "result": 0.86}, {"measurement": "IRF Lucia reporter activity", "setting": "[1]; agonist: LPS (TLR4) 0.1 ug/mL", "result": 1.04}]}, {"smiles": "CNC(=O)C(NC(=O)C(CC(C)C)C(O)C(=O)NO)C(C)(C)C", "note": "(centres undefined)", "values": [{"measurement": "IRF Lucia reporter activity", "setting": "[2]; [5]", "result": 0.948}]}, {"smiles": "CNC(=O)C(NC(=O)C(CC(C)C)C(O)C(=O)NO)C(C)(C)C", "note": "(centres undefined) (library stock concentration (final ~1000-fold dilution): 10 mM)", "values": [{"measurement": "IRF Lucia reporter activity", "setting": "[1]; [4]", "result": 0.695}, {"measurement": "IRF Lucia reporter activity", "setting": "[1]; agonist: LPS (TLR4) 0.1 ug/mL", "result": 0.911}]}]}
